Reference: the RNAGym collection of RNA variant scans (doi:10.7554/elife.90254)
Read counts are not given, so values of variants with three or more changes are uncertain.

B1: LINE1-mini (parent)
chain: GGCAGAGCUCAACACAGCGUGGCAAAGUGGCUGUGGCUAGACUGCC

Variants of: B1
Assay: self-cleavage, relative activity (ratio to wild type); higher = more cleavage; in vitro, sequencing; the parent is a self-cleaving ribozyme

Variant | self-cleavage
A4C C23U U34C | 0.04
G1U G22U G27C | 0.1
C10U G19C G21A G44C C45U | 0.01
C10A U34C U38C A39G | 0.01
C3A A26U A39G | 0.93
A25U G33A C46U | 0.14
C31A U38A G40A | 0.06
C3G A6U A16C G27U G35U A41G | 0.11
G27U U28G C31U A39U | 0.21
G17U A26C C37U G44C | 0.03
A16G C23U C37G | 0
U9A G19U G35A C45U | 0.04
C23U A26C A41G C42G | 0.05
G2U A12G G35U U43A | 0.04
A11C G36C G44U | 0.02
A4G A16C U28C A39G | 0
G19U A24G C31A G33A G35C G36U | 0.2
A16U A26U G33U | 0.13
A25U A26C G29C | 0.13
G5A G27A U34C | 0.08
U20A G27U G33A G36C C37A C46U | 0.02

Variant | self-cleavage
G7U C23U G44U | 0.17
G17U C18A A41U | 0.25
C8G A11U C23U A25C C31A C46U | 0.01
G17A G27A G44A | 0.47
A6C C10U G17A C18G U20A | 0.08
A4C G21A G44C | 0.32
G2U G7A G27C U32C | 0.09
G19A G36C C45U | 0.08
U9A C23U U28G | 0.04
G5A G7C C8A | 1.36
G1U C15A A25U | 0.04
A16G C31G G40C | 0
C8A U9C G17A G21A G22U U38G | 0.03
C3G G7U A41G | 0.07
C13G A24U C45U | 0.07
C3A G7U C15A | 0.17
G1A G17C C18A G21A G36A | 0.28
A11G U32A G35A | 0.01
G5A C13U G21A G35U C42U | 0.14
C3U A12G C23U | 0.04
A4U G5A U20A C37U C45A | 0.02

Variant | self-cleavage
C3A A4G C8U G21A | 0.48
A4C A25G C42U G44C | 0.03
C3A U20G A39C C46G | 0.09
A25C A26U U28A G33U | 0.24
C15A G21U G22A | 0.02
G7A A14C U32A G44C | 0.05
A12C C13A A14G G40U | 0
G7A C23G U38G C42U | 0.06
A12G C42G G44C | 0
C15U C37U G44A | 0.12
G36U U38G C46G | 0.02
A6G C10U G30A C42G | 0.07
C8A G36C C46A | 0.48
A4U A24G G27C G35U A39U | 0.08
C8U A25C A39U | 0.06
A25G G29A U34C C45U | 0.08
C3G G7A U9A A26U G29U G36C A39C | 0.16
U28C C31U C42U | 0.29
C3U A14U G17U C18A C42U | 0.14
G2A C10U G27U C37G | 0.02
A4C A12U A14C A24G C31G | 0.02

Variant | self-cleavage
A11G A14C C18A G33U | 0.02
G2A C13A G21A | 0.2
G2U A6U C15G | 0
G5A A11U G19A G36U A39G | 0
G1U C10G C13A U20C G30A G35A | 0.01
G17C G40A U43A G44U | 0.05
G5C A24U G33U | 0.04
C13U G29A G35C | 0.13
G2A C8G C23A G36A C37G | 0.14
A4G A24U U32A G33U | 0.05
G5C G7U U38G C42A | 0.01
C31G C42U C46U | 0.01
U34A C42G G44A C45U | 0.02
G2C A11C A14G C18G U20A G22C | 0.01
A11C C31G A41C C42G | 0
C3A A39C C42G | 0.08
C13G C18A G19C U20G C23A U32C C37G | 0.02
G21C C31G A41G | 0
C18A G21C A26C C45A | 0.08
G2U G17U C23G | 0.02
G7A C23A G30C | 0.2
